Measured values published in PubChem BioAssay AID504832 (National Center for Advancing Translational Sciences (NCATS), 2011).
In all, about 310,000 compounds went through this assay and about 18,000 (5.8%) were called active. Inconclusive means that the source gave no clear call. Such entries were picked first, then a sample of the others. The call rests on the fitted dose curve; in most records, active means well fitted inhibition curve with a large enough effect; inconclusive means small, poorly fitted or top-dose-only effect, or another doubt; inactive means no such curve, though single readings can be large or run the other way. No potency is given beside an inconclusive call; the fits are too rough.

assay: Primary qHTS for delayed death inhibitors of the malarial parasite plastid, 48 hour incubation; settings: P. falciparum luciferase growth in erythrocytes; series mostly up to 28.7 µM; activity change, negative = inhibition: at the top concentration
Source text: The goal of this screen is to discover new antimalarial compounds that act by inhibiting the development of the apicoplast in the malarial parasite Plasmodium falciparum. The biochemical processes that make this organelle essential for erythrocytic stage parasites are not well understood. However, antibiotics such as azithromycin and tetracycline, which target the apicoplast translational machinery, have a potent antimalarial effect.
We have developed a cell-based assay that measures parasite growth based on the expression of an integrated copy of a firefly luciferase reporter. To detect small molecules that cause this "delayed death" phenotype, erythrocytes infected with the luciferase-expressing parasites were incubated with compounds for either one or two generations, corresponding to 48 and 96 hours, respectively. Compounds that inhibit parasite growth in the second generation, but not the first, should be enriched in antimalarials that target the apicoplast. Growth inhibition is detected by a decrease in luciferase activity.
Assay Provider: David Fidock and Eric Ekland, Columbia University
Keywords: NIH Roadmap, MLPCN, MLI, MLSMR, qHTS, NCGC, qHTS, malaria, luciferase, viability
Four microliters of culture medium (RPMI 1640 with 0.5% w/v Albumax (GIBCO), 24 mM sodium bicarbonate and 10 ug/mL gentamycin) were dispensed by a Multi-drop Combi into white solid 1536-well plates (Grenier) and 23 nL compound was added by a pin tool. Four microliters of infected erythrocytes (2% hematocrit, 0.1% parasitemia final concentration) in culture medium were dispensed and the plates incubated for 48 hours at 37 C in 5% CO2. Two microliters of luciferase detection reagent was added and luminescence was detected by a ViewLux (PerkinElmer) reader.
On the % scale 0 is the no-effect control and ±100 the full control effect; potency means the concentration at half of the fitted maximal effect; tags describe the fitted curve by direction and shape.

Row | Structure (SMILES) | Potency | activity change, negative = inhibition
1 | FC(F)(F)c1cccc(Cc2noc(CN3CCC(c4ccncc4)CC3)n2)c1 | inconclusive [inhibitor, single point] | 
2 | COCCNC(=S)N/N=C1\CC(C)CC(C)(C)C1 (stereo not given) | inconclusive [inhibitor, single point] | 
3 | CCN(CCn1cccn1)Cc1nc(-c2ccc(C(=O)OC)cc2)no1 | inconclusive [inhibitor, single point] | 
4 | COc1ccc(NC(=O)C(CCCCNC(=O)OC(C)(C)C)NC(=O)OCc2ccccc2)cc1 (stereo not given) | inconclusive [inhibitor, partial curve, poor fit] | 
5 | CCc1cc2c(=O)c(-c3cscn3)coc2cc1O |  | inactive: 88%
6 | O=C(CCl)Nc1c[nH]c(=O)[nH]c1=O | active: 1.65 µM | 
7 | CCN(CC(=O)NCc1ccc(F)cc1)C(=O)Cc1ccc(OC)cc1 | inconclusive [inhibitor, partial curve] | 
8 | Cc1ccc(C(C)C)c(OCC(=O)OCC(=O)NC2CCS(=O)(=O)C2)c1 (stereo not given) |  | inactive: -6.02%
9 | O=C(O)CN(CCc1ccccc1)S(=O)(=O)c1ccccc1 |  | inactive: -6.85% [at 0.00184 µM]
10 | Cc1cccc(NC(=O)CSc2nc3ccccc3nc2N2CC(C)OC(C)C2)c1 (stereo not given) | inconclusive [inhibitor, partial curve, poor fit] | 
11 | Oc1ccccc1CN1CCCC(N2CCc3ccccc3C2)C1 (stereo not given) | active: 9.28 µM | 
12 | O=Cc1c(N2CCCCC2)nc2ccccn2c1=O | inconclusive [inhibitor, partial curve, poor fit] | 
13 | CC(=O)Nc1ccc(NC(=O)CSc2nc(C)nc3sc(C)c(C)c23)cc1 |  | inactive: -2.7%
14 | CCOc1ccc(S(=O)(=O)N2CCCCC2)cc1NC(=O)CN1C(=O)NC(C)(C2CC2)C1=O (stereo not given) | inconclusive [inhibitor, single point] | 
15 | O=C(N/N=C\c1c[nH]c2ccccc12)c1ccc(O)cc1 |  | inactive: 35.4%
16 | CCCCc1ccc(NC(=O)N2CCN(c3cc(C)nc4ccccc34)CC2)c(C)c1 | inconclusive [inhibitor, single point] | 
17 | CCn1c(C)c(C(C)=O)c(N2CCCCC2)nc1=S |  | inactive: -0.157%
18 | COc1ccc(CCN(Cc2cc3ccc(C)cc3n3nnnc23)C(C)=O)cc1OC |  | inactive: 2.41%
19 | COc1ccccc1N(C)S(=O)(=O)c1ccc(C(=O)Nc2ccncc2)cc1 | inconclusive [inhibitor, partial curve, poor fit] | 
20 | NNC(=O)c1cc2cc(Oc3ccccc3)ccc2[nH]1 | inconclusive [inhibitor, partial curve, poor fit] | 
21 | C[C@H](NC(=O)N1CCn2c1nc1ccccc12)C(=O)NCCc1ccccc1 |  | inactive: -18.1%
22 | Cc1cccc(Cc2c(C)nc3c(C(=O)N4CCN(Cc5ccc6c(c5)OCO6)CC4)cnn3c2C)c1 | inconclusive [inhibitor, single point] | 
23 | O=c1c2cc3c(=O)n(-c4ccccc4O)c(=O)c3cc2c(=O)n1-c1ccccc1O |  | inactive: 1.17%

Row | Structure (SMILES) | Potency | activity change, negative = inhibition
24 | COc1cc(/C=N/NC(=O)c2ccc(CSc3nc4ccccc4[nH]3)cc2)cc(OC)c1OC | inconclusive [inhibitor, single point] | 
25 | O=C1CCC(=O)N1CN(Cc1ccco1)CN1C(=O)CCC1=O |  | inactive: 40.1%
26 | O=C(N/N=C/c1ccc([N+](=O)[O-])o1)c1ccccc1-n1cccc1 | inconclusive [inhibitor, single point] | 
27 | COc1cccc(/C=N/NC(=O)c2[nH]nc3c2CCc2ccccc2-3)c1O | inconclusive [inhibitor, single point] | 
28 | Fc1ccc2cnc(-c3ccccc3)c(-c3cccc(C(F)(F)F)c3)c2c1 | inconclusive [inhibitor, partial curve] | 
29 | CCNC(=S)N/N=C/c1cc(Br)cc(Br)c1OC | inconclusive [inhibitor, single point] | 
30 | COC(=O)c1sccc1NC(=O)Nc1ccc(C(C)=O)cc1 |  | inactive: 51.5%
31 | COc1ccc(/C=C2/Sc3ccc(C(=O)N4CCOCC4)cc3NC2=O)cc1OC | inconclusive [inhibitor, single point] | 
32 | CCCCCCCCCCCCCCCC[n+]1ccc(/C=N/O)cc1 | active: 2.33 µM | 
33 | CC1CCC(N(CCCN)Cc2ccco2)CC1C (stereo not given) |  | inactive: 2.08% [at 5.75 µM]
34 | CCOc1ccc2c(c1)OC(c1ccc(C)cc1)(C(F)(F)F)NC2=O (stereo not given) | active: 1.04 µM | 
35 | COc1ccccc1-n1c(SCC(=O)OC(C)C)nc2cccnc21 | inconclusive [inhibitor, single point] | 
36 | Cc1cc(NC(=O)CSCC(=O)N2CCN(c3cccc(C)c3C)CC2)no1 | inconclusive [inhibitor, partial curve, poor fit] | 
37 | CC(C)N1CCN(C(=O)c2ccc(NC(=O)c3ccc(Br)o3)cc2)CC1 |  | inactive: -20.2%
38 | O=C(c1ccc2c3c(cccc13)CC2)C1CCCN(Cc2cccnc2)C1 (stereo not given) | active: 1.65 µM | 
39 | COc1ccc(Cl)cc1NC(=O)C1CC(=O)N(C2CCCCC2)C1 (stereo not given) | inconclusive [inhibitor, partial curve, poor fit] | 
40 | CCOc1ccc(OCCC(=O)N(CC)CC(=O)Nc2ccccc2C(F)(F)F)cc1 |  | inactive: 4.79%
41 | CC(=O)N1c2ccc(S(=O)(=O)N(C)CC(=O)Nc3ccccc3C)cc2CC1C (stereo not given) | inconclusive [inhibitor, partial curve, poor fit] | 
42 | CSCCC1NC2(C(=O)Nc3c(Cl)cccc32)[C@@H]2C(=O)N(C3CCCC3)C(=O)[C@H]12 (stereo not given in full) | inconclusive [inhibitor, partial curve, poor fit] | 
43 | CCN(CC)CCn1c2c(c(SCC(=O)Nc3cc(C)on3)nc1=O)CCCC2 | inconclusive [inhibitor, single point] | 
44 | COc1ccc(OC)c(S(=O)(=O)N2CCCC(C(=O)NCCN3CCOCC3)C2)c1 (stereo not given) |  | inactive: -1.57%
45 | O=C(Nc1ccc(N2CCN(C(=O)c3ccco3)CC2)cc1)c1ccccc1F | inconclusive [inhibitor, single point] | 
